# Target: the molecule itself
# Experiment: M315 scFv-Fc homodimer; co-expression with dummy Fc K409D; K392D, SDS-PAGE band density (ND = Not Detectable)
# Excerpt: FIG. 10. SDS-PAGE analysis of charge residue mutations (listed in Table 6) in addition to D399′K - - - K409D pair mutations. Wild type (first lane) and knobs-into-holes mutations (last lane) are also shown for comparison. 1:2 input DNA ratio of dummy Fc and M315 maxibody was used here.
# DNA was transfected into human embryonic kidney cell line 293-6E using Lipofectamine™ 2000 reagent (Invitrogen). The cell culture supernatant was harvested 3-4 days after transfection and analyzed on SDS-PAGE Gels under non-reduced condition. The gel was then transferred to nitrocellulose membrane and subject to western analysis using peroxidase-conjugated goat anti-human IgG antibody (Jackson ImmunoResearch Laboratories) and results are shown in FIG. 10.
protein,measurement,value
"M315 scFv-Fc D399′K&E357′K (Fc fusion, Single scFv-Fc chain; also called D357′K) HMAEVQLQQSGAELVKPGSSVKISCKASGYTFANNFMHWIKQQPGNGLEWIGWIYPGDGDTEYNQKFSGKATLTADKSSSTAYMQLNSLTSEDSAVYFCIRLTEGTTYWGQGVMVTVSSGGGGSGGGGSGGGGSQFVLTQPNSVSTNLGSTVKLSCKRSTGNIGSNYVNWYQQHEGRSPTTMIYRDDKRPDGVPDRFSGSIDGSSNSALLTINNVQTEDEADYFCQSYSRGVSPVFGGGTKLTVLAAA[human IgG1 Fc with E357K D399K (EU numbers) left out]",binding result,no binding

# — US20100286374A1 (Amgen, published 2010)
